Experimental data: the supplement of paper PMC10037445
± gives the standard deviation of the averaged measurements. The full ranking holds about 2,900 compounds; the median of “NF-kB SEAP reporter activity, fold change vs agonist alone” is about 0.99, and the highest 2% start at about 2.6. Some of the results follow.

Experiments:
[1] = system: RAW-Dual; test: NF-kB SEAP reporter activity, fold change vs agonist alone; higher = enhanced NF-kB activity; details: library stock concentration (final ~1000-fold dilution): 10 mM
Outline: (§1)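 RAW-Dual macrophages were seeded in DMEM at 50,000 cells/well in 384-well plates, given 50 nL of library stock by pin tool, and given a PRR agonist 1 h later. Plates were held at 37 °C, 5% CO2 for 20 hours, after which supernatant was read for IRF by QuantiLuc luminescence and for NF-κB by QuantiBlue absorbance at 620 nm. Reporter activity is expressed as fold change over wells that received agonist alone. A well was called cytotoxic when IncuCyte confluency fell below 70% of agonist controls in both mask sets.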

[2] = system: RAW-Dual; test: NF-kB SEAP reporter activity, fold change vs agonist alone; cytotoxicity flag (confluency mask): not cytotoxic; higher = enhanced NF-kB activity
Outline: as §1

[3] = system: RAW-Dual; test: NF-kB SEAP reporter activity, fold change vs agonist alone; cytotoxicity flag (confluency mask): cytotoxic (confluency <70% of control); higher = enhanced NF-kB activity
Outline: as §1

[4] = cytotoxicity flag (confluency mask): cytotoxic (confluency <70% of control), agonist: MPLA (TLR4) […]
[5] = agonist: ODN 1826 (TLR9) 0.5 ug/mL
[6] = agonist: Pam2CSK4 (TLR2/6) 0.1 ug/mL
[7] = agonist: Pam3CSK4 (TLR2/1) 0.1 ug/mL
[8] = cytotoxicity flag (confluency mask): not cytotoxic, agonist: Imiquimod (TLR7) […]
[9] = cytotoxicity flag (confluency mask): not cytotoxic, agonist: MPLA (TLR4) […]
[10] = cytotoxicity flag (confluency mask): cytotoxic (confluency <70% of control), agonist: Imiquimod (TLR7) […]

Cc1cc(C)cc(C(=O)NOCCCCCC(=O)NO)c1
NF-kB SEAP reporter activity [1, 4]: 2.74

CC(NC(=O)c1ccccc1N=Cc1c(O)ccc2ccccc12)c1ccccc1 (stereo not drawn) (library stock concentration (final ~1000-fold dilution): 10 mM)
NF-kB SEAP reporter activity ([2]; agonist: LPS (TLR4) 0.1 ug/mL): 5.11
NF-kB SEAP reporter activity [2, 5]: 1.72
NF-kB SEAP reporter activity [2, 6]: 0.843
NF-kB SEAP reporter activity [2, 7]: 1.53

CC(NC(=O)c1ccccc1N=Cc1c(O)ccc2ccccc12)c1ccccc1 (stereo not drawn)
NF-kB SEAP reporter activity [1, 8]: 1.56
NF-kB SEAP reporter activity [1, 9]: 2.25

CC1=CC2(O)OC3(CC2=C(C)C)C(C)CCC13 (stereo not drawn)
NF-kB SEAP reporter activity [1, 8]: 0.957 ± 0.03
NF-kB SEAP reporter activity [1, 9]: 1.03 ± 0.025

CC1=CC2(O)OC3(CC2=C(C)C)C(C)CCC13 (stereo not drawn) (library stock concentration (final ~1000-fold dilution): 10 mM)
NF-kB SEAP reporter activity ([2]; agonist: LPS (TLR4) 0.1 ug/mL): 1.04 ± 0.043
NF-kB SEAP reporter activity [2, 5]: 0.938 ± 0.07
NF-kB SEAP reporter activity [2, 6]: 0.963 ± 0.062
NF-kB SEAP reporter activity [2, 7]: 1.06 ± 0.049

COc1cc(O)cc(O)c1C(=O)/C=C/c1ccccc1
NF-kB SEAP reporter activity [1, 10]: 1.45 ± 0.2
NF-kB SEAP reporter activity [1, 4]: 0.761 ± 0.14

COc1cc(O)cc(O)c1C(=O)/C=C/c1ccccc1 (library stock concentration (final ~1000-fold dilution): 10 mM)
NF-kB SEAP reporter activity ([3]; agonist: LPS (TLR4) 0.1 ug/mL): 0.394 ± 0.18
NF-kB SEAP reporter activity [3, 5]: 0.569 ± 0.089
NF-kB SEAP reporter activity [3, 6]: 1.03 ± 0.34
NF-kB SEAP reporter activity [3, 7]: 0.635 ± 0.052

Cc1cnc(NC(=O)C2=C(O)c3ccccc3S(=O)(=O)N2C)s1
NF-kB SEAP reporter activity [1, 8]: 0.892
NF-kB SEAP reporter activity [1, 9]: 0.885

Cc1cnc(NC(=O)C2=C(O)c3ccccc3S(=O)(=O)N2C)s1 (library stock concentration (final ~1000-fold dilution): 10 mM)
NF-kB SEAP reporter activity ([2]; agonist: LPS (TLR4) 0.1 ug/mL): 0.983
NF-kB SEAP reporter activity [2, 5]: 0.981
NF-kB SEAP reporter activity [2, 6]: 0.95
NF-kB SEAP reporter activity [2, 7]: 0.918

CNCCC(Oc1cccc2ccccc12)c1cccs1 (stereo not drawn)
NF-kB SEAP reporter activity [1, 4]: 1.98

CNCCC(Oc1cccc2ccccc12)c1cccs1 (stereo not drawn) (library stock concentration (final ~1000-fold dilution): 10 mM)
NF-kB SEAP reporter activity ([3]; agonist: LPS (TLR4) 0.1 ug/mL): 1.1
NF-kB SEAP reporter activity [3, 5]: 0.191
NF-kB SEAP reporter activity [3, 6]: 0.797
NF-kB SEAP reporter activity [3, 7]: 0.525

O=C(O)CCCc1ccccc1 (library stock concentration (final ~1000-fold dilution): 10 mM)
NF-kB SEAP reporter activity ([2]; agonist: LPS (TLR4) 0.1 ug/mL): 0.948
NF-kB SEAP reporter activity [2, 5]: 0.937
NF-kB SEAP reporter activity [2, 6]: 1.1
NF-kB SEAP reporter activity [2, 7]: 1.19

O=C(O)CCCc1ccccc1
NF-kB SEAP reporter activity [1, 8]: 0.936
NF-kB SEAP reporter activity [1, 9]: 1.08

CC1(C)OCCn2c1nc1c(N3CCOCC3)nc(-c3cnc(N)nc3)nc12
NF-kB SEAP reporter activity [1, 8]: 1.02
NF-kB SEAP reporter activity [1, 9]: 1.07

CC1(C)OCCn2c1nc1c(N3CCOCC3)nc(-c3cnc(N)nc3)nc12 (library stock concentration (final ~1000-fold dilution): 10 mM)
NF-kB SEAP reporter activity ([2]; agonist: LPS (TLR4) 0.1 ug/mL): 1.42
NF-kB SEAP reporter activity [2, 5]: 0.768
NF-kB SEAP reporter activity [2, 6]: 0.464
NF-kB SEAP reporter activity [2, 7]: 0.544

CS(=O)(=O)O.O=C(OC1CC2CC3CC(C1)N2CC3=O)c1c[nH]c2ccccc12 (stereo not drawn) (library stock concentration (final ~1000-fold dilution): 10 mM)
NF-kB SEAP reporter activity ([2]; agonist: LPS (TLR4) 0.1 ug/mL): 0.646
NF-kB SEAP reporter activity [2, 5]: 0.571
NF-kB SEAP reporter activity [2, 6]: 0.906
NF-kB SEAP reporter activity [2, 7]: 0.497

CS(=O)(=O)O.O=C(OC1CC2CC3CC(C1)N2CC3=O)c1c[nH]c2ccccc12 (stereo not drawn)
NF-kB SEAP reporter activity [1, 8]: 0.712
NF-kB SEAP reporter activity [1, 9]: 0.75

COC1=CC(c2cc3ccccc3[nH]2)=N/C1=C\c1[nH]c(C)cc1C.CS(=O)(=O)O (library stock concentration (final ~1000-fold dilution): 10 mM)
NF-kB SEAP reporter activity ([2]; agonist: LPS (TLR4) 0.1 ug/mL): 8.62
NF-kB SEAP reporter activity [2, 5]: 1.9
NF-kB SEAP reporter activity [2, 6]: 2.55
NF-kB SEAP reporter activity [2, 7]: 3.87

COC1=CC(c2cc3ccccc3[nH]2)=N/C1=C\c1[nH]c(C)cc1C.CS(=O)(=O)O
NF-kB SEAP reporter activity [1, 8]: 1.4
NF-kB SEAP reporter activity [1, 9]: 2.78

O=C(Cc1ccccc1)Nc1nnc(NC2CCN(c3nnc(NC(=O)Cc4ccccc4)s3)CC2)s1
NF-kB SEAP reporter activity [1, 8]: 0.998
NF-kB SEAP reporter activity [1, 9]: 1.26

O=C(Cc1ccccc1)Nc1nnc(NC2CCN(c3nnc(NC(=O)Cc4ccccc4)s3)CC2)s1 (library stock concentration (final ~1000-fold dilution): 10 mM)
NF-kB SEAP reporter activity ([2]; agonist: LPS (TLR4) 0.1 ug/mL): 1.41
NF-kB SEAP reporter activity [2, 5]: 0.773
NF-kB SEAP reporter activity [2, 6]: 0.514
NF-kB SEAP reporter activity [2, 7]: 0.64

OC1(c2ccc(Cl)c(C(F)(F)F)c2)CCN(CCCC(c2ccc(F)cc2)c2ccc(F)cc2)CC1 (library stock concentration (final ~1000-fold dilution): 10 mM)
NF-kB SEAP reporter activity ([3]; agonist: LPS (TLR4) 0.1 ug/mL): 0.194
NF-kB SEAP reporter activity [3, 5]: 0.175
NF-kB SEAP reporter activity [3, 6]: 0.101
NF-kB SEAP reporter activity [3, 7]: 0.11

OC1(c2ccc(Cl)c(C(F)(F)F)c2)CCN(CCCC(c2ccc(F)cc2)c2ccc(F)cc2)CC1
NF-kB SEAP reporter activity [1, 10]: 0.266
NF-kB SEAP reporter activity [1, 4]: 0.266

CN(C(=O)CNC(=O)/C=C/c1cccc(Cl)c1)C1CCS(=O)(=O)CC1
NF-kB SEAP reporter activity [1, 8]: 0.848
NF-kB SEAP reporter activity [1, 9]: 0.851

CN(C(=O)CNC(=O)/C=C/c1cccc(Cl)c1)C1CCS(=O)(=O)CC1 (library stock concentration (final ~1000-fold dilution): 10 mM)
NF-kB SEAP reporter activity ([2]; agonist: LPS (TLR4) 0.1 ug/mL): 1.01
NF-kB SEAP reporter activity [2, 5]: 0.874
NF-kB SEAP reporter activity [2, 6]: 0.449
NF-kB SEAP reporter activity [2, 7]: 0.519

O=C1Nc2ccccc2/C1=C1\Nc2ccccc2C1=O (library stock concentration (final ~1000-fold dilution): 10 mM)
NF-kB SEAP reporter activity ([2]; agonist: LPS (TLR4) 0.1 ug/mL): 1.12
NF-kB SEAP reporter activity [2, 5]: 0.972
NF-kB SEAP reporter activity [2, 6]: 0.69
NF-kB SEAP reporter activity [2, 7]: 1.02

O=C1Nc2ccccc2/C1=C1\Nc2ccccc2C1=O
NF-kB SEAP reporter activity [1, 8]: 0.933
NF-kB SEAP reporter activity [1, 9]: 1.04
